Drawing on article PMC11831438, this text covers binding for one molecule.

The target in experiment [1] is T1, endogenous SENP6 (mouse) (mouse (endogenous in primary neurons and brain)) (UniProt Q6P7W0).
T1 sequence: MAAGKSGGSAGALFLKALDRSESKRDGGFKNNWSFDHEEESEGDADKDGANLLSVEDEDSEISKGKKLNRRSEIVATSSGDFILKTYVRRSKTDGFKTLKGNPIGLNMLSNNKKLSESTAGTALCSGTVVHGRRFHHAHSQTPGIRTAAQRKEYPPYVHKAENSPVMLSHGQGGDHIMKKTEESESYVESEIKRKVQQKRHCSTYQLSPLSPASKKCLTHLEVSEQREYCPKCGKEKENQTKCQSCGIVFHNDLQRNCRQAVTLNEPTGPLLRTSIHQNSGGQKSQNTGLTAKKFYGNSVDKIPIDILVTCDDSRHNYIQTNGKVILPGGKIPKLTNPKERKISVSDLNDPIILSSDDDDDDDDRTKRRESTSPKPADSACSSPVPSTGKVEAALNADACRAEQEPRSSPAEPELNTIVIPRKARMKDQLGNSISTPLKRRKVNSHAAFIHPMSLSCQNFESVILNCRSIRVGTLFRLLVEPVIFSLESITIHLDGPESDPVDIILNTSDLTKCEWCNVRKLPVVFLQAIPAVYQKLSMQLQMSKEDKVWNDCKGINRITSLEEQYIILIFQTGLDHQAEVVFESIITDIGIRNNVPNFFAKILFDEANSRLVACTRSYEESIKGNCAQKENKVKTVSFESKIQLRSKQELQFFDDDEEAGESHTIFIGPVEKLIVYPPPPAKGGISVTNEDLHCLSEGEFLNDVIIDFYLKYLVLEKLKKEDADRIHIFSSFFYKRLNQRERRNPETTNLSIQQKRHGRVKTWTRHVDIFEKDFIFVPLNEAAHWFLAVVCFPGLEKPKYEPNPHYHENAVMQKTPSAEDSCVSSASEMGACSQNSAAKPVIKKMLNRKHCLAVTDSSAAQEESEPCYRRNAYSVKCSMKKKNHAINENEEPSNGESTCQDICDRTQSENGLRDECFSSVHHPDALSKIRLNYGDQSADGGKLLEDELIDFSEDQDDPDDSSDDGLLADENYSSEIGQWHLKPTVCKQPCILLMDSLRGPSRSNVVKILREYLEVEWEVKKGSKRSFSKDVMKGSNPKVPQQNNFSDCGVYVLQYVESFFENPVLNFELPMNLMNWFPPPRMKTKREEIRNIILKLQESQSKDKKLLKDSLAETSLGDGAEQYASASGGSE
Kind of experiment: co-IP; endogenous proteins in brain of mice after ischemic stroke, Tat-Nrf2 i.v. 6 h after reperfusion at 5, 10 and 15 mg kg^-1 for 3 consecutive days; the blocked pair.

Experiment [2] addresses T1, endogenous SENP6 (mouse) (mouse (endogenous in primary neurons and brain)). Kind of experiment: co-IP; endogenous proteins in primary mouse neurons, control or OGD 1 h and reperfusion 24 h; whole lysates and cytoplasmic and nuclear fractions; in some experiments neurons infected with adenoviruses expressing SENP6 or SENP6 shRNA for 48 h.

These are yes or no findings as the source states them, for the method shown. In cells and extracts the contact can be indirect. Some entries that bind do so weakly or less than the wild type.

B1: endogenous Nrf2 (mouse) (protein, UniProt Q60795 1-597)
chain: MMDLELPPPGLQSQQDMDLIDILWRQDIDLGVSREVFDFSQRQKDYELEKQKKLEKERQEQLQKEQEKAFFAQFQLDEETGEFLPIQPAQHIQTDTSGSASYSQVAHIPKQDALYFEDCMQLLAETFPFVDDHESLALDIPSHAESSVFTAPHQAQSLNSSLEAAMTDLSSIEQDMEQVWQELFSIPELQCLNTENKQLADTTAVPSPEATLTEMDSNYHFYSSISSLEKEVGNCGPHFLHGFEDSFSSILSTDDASQLTSLDSNPTLNTDFGDEFYSAFIAEPSDGGSMPSSAAISQSLSELLDGTIEGCDLSLCKAFNPKHAEGTMEFNDSDSGISLNTSPSRASPEHSVESSIYGDPPPGFSDSEMEELDSAPGSVKQNGPKAQPAHSPGDTVQPLSPAQGHSAPMRESQCENTTKKEVPVSPGHQKAPFTKDKHSSRLEAHLTRDELRAKALHIPFPVEKIINLPVDDFNEMMSKEQFNEAQLALIRDIRRRGKNKVAAQNCRKRKLENIVELEQDLGHLKDEREKLLREKGENDRNLHLLKRRLSTLYLEVFSMLRDEDGKPYSPSEYSLQQTRDGNVFLVPKSKKPDTKKN
For B1, the binding result in experiment [1] and in experiment [2] was “binds” in each case.
